# Measurements from ChEMBL document CHEMBL4888484, “Replenishing the malaria drug discovery pipeline: Screening and hit evaluation of the MMV Hit Generation Library 1 (HGL1) against asexual blood stage Plasmodium falciparum ,using a nano luciferase reporter read-out” (2022).
# “And” between values parts separate entries of the source, which are not always exact repeats. Equal entries are not always repeated. In all, about 150,000 compounds went through this assay and about 540 (0.36%) showed an effect of 50% or more. The list shows a part of the results.
# System: Plasmodium falciparum
# Test: Primary screen in NF54 nanoGlo assay, in single point, at 2uM, 72h; a lower Z score goes with more inhibition
# Type: functional, Erythrocyte
# Settings: timepoint 72 hour
Compound,% Inhibition [%],Z score,% Inhibition (2 µM)
COc1ccc(CNC(=O)N2CC[C@H](Oc3ccncc3Cl)C2)cc1OC,-2,0.41,
COc1ccc(-n2nc(-c3ccccc3)n(CC(=O)NCCN(C)C)c2=O)cc1,-8,1.06,
Cc1nc(-c2ccc(F)c(F)c2)sc1C(=O)N[C@H]1CCN(C(C)C)C1=O,-4,0.47,
O=C(NCc1ccncc1)[C@]1(F)CCCN(S(=O)(=O)c2ccccc2F)C1,-8,1.28,
c1ccc(-c2ccc(OCCCCn3cncn3)cc2)cc1,0,0.03,
Cc1nc(-c2csc(S(=O)(=O)Nc3cccc(C(F)(F)F)c3C)c2)sc1C,-6,0.85,
Cc1c(NC(=O)N2CCCO[C@@H](CN3CCOCC3)C2)cnn1C,-21,2.67,
Cc1ccc2ncc(-c3nc(N4CCOCC4)n(C)n3)cc2c1,-20,3.21,
COC[C@@H](O)CNCc1ccc(C)cc1Br,-7,0.93,
Cc1c(Cl)cc(NC(=O)NCCCS(C)(=O)=O)cc1Cl,-4,0.57,
Cc1ccc(N2C[C@@H](c3nc(-c4cccc(-c5csc(C6CC6)n5)c4)no3)CC2=O)cc1,6,-0.72,
c1ccc2c(N3CCC[C@H](Cn4cncn4)C3)ncnc2c1,-22,3.07,
CCC1(CC)CN(C(=O)c2cc(C#N)oc2C)CCS1(=O)=O,-3,0.43,
CCOc1ccc(C(=O)N[C@H]2CC[C@H](Oc3ncccn3)CC2)cn1,0,0.03,
CCN(Cc1ccccc1)c1ccc(NS(=O)(=O)c2ccccc2C)cc1C(=O)O,-13,1.23,
Cc1ccc(C(=O)NC2CCN(c3nnc4ccccn34)CC2)cc1N1CCCC1=O,35,-3.99,
CC(C)COC(=O)NC(C)(C)COC(=O)Nc1ccc(Cl)cc1,4,-0.52,
C[C@@H]1OCCO[C@@H]1C(=O)N(Cc1cccnc1)c1ccc(Cl)cc1,-3,0.53,
COc1ccccc1OCC(=O)N1CC[C@H](S(=O)(=O)C(C)(C)C)C1,-2,0.42,
Cc1ccc([C@@]2(C)NC(=O)N(CCC3OCCO3)C2=O)c(C)c1,-13,2.06,
CC1CN(C(=O)NC(C)C(C)c2ccccc2)CCS(=O)(=O)C1 (configuration not stated),-9,1.85,

Compound,% Inhibition [%],Z score,% Inhibition (2 µM)
C[C@@H]1C[C@H](O)CN(C(=O)Nc2ccccc2C(=O)N2CCCCC2)C1,5,-0.82,
Cc1ccc2c(c1)[C@H](O)CC(C)N2C(=O)c1ccc(Br)cc1 (some centres not stated),4,-0.47,
CCc1[nH]nc(NC(=O)C2CC23CCOC3)c1-c1ccc2c(c1)OCO2 (configuration not stated),-3,0.52,
C[C@@H]1Oc2ccc(NC(=O)c3cncc(Br)c3)cc2NC1=O,-12,2.57,
NC(=O)C[C@H](c1cccc(Cl)c1)c1cn(Cc2ccc(F)cc2)c2ccccc12,-1,0.22,
O=C(Cn1nnn(-c2ccc(NS(=O)(=O)c3cccnc3)cc2)c1=O)N1CCOCC1,-11,2.05,
CC(C)c1nnsc1CN1CCC[C@@](O)(CO)C1,-6,1.16,
COc1ccc(CC(=O)N2CCN(c3cc(=O)n(C)c(=O)n3C)CC2)c(Cl)c1,-12,1.89,
O=C(Nc1ccccc1F)N1CCOc2ccc(N3CCOCC3)cc2C1,-6,1.11,
CC(C)n1ncc2c1[C@@H](NCc1c(Cl)cccc1N1CCOCC1)CCC2,-12,0.98,
CCn1c(C)ccc(-c2noc(CCC(=O)Nc3ccccn3)n2)c1=O,26,-3.5,
C[C@H]1COCCN1C(=O)NC(c1cccnc1)C1CC1 (some centres not stated),-9,1.22,
COc1cc([C@H]2CC(=O)Nc3c2cnn3C)cc2c1OCCO2,33,-3.68,
Cc1ccsc1CNC(=O)N[C@H]1CC(=O)N(C(C)(C)C)C1,-2,0.22,
O=S(=O)(c1cc(Br)ccc1Br)N(CCO)CCO,-33,3.9,
C#CCNC(=O)CCNC(=O)N[C@@H](C)C1CCCCC1,-2,0.21,
CC(C)c1ccc(CN2CCC3(CC2)NC(=O)c2c(Cl)cccc2N3)cc1,8,-1.19,
CC(=O)N[C@H](C(=O)Nc1cc(C(F)(F)F)c[nH]c1=O)C(C)C,-3,0.59,
CN1CCCC1C1CCCN1C(=O)c1cn(C)c2ccccc12 (configuration not stated),-6,0.7,
CC1CN(c2ccc(F)cn2)CC(c2ccsc2)O1 (configuration not stated),-14,1.36,
CCN1CCCCC1C(=O)N[C@H]1C[C@@H]1CC(C)C (some centres not stated),-4,0.59,

Compound,% Inhibition [%],Z score,% Inhibition (2 µM)
CN(CN1C(=O)C(=O)c2ccccc21)CN1C(=O)C(=O)c2ccccc21,4,-0.44,
O=C1CCc2cc([C@@H](O)CN3C(=O)c4ccccc4C3=O)ccc2N1,-4,0.51,
Cc1cc(CNS(=O)(=O)c2cccc(C(=O)N[C@H]3CCOC3)c2)n(C)n1,10,-1.41,
COc1cc(OC)nc(Oc2cccc(Cl)c2C(=O)NS(=O)(=O)C2CCCC2)n1,-45,5.26,
Cc1ccc(CN2CCN(Cc3ccncc3)[C@H]3CS(=O)(=O)C[C@H]32)o1,-10,1.92,
CC1CCN(S(=O)(=O)N(C)CCN2CCCC2)CC1,-2,0.38,
O[C@@H](CNCc1cccnc1)COc1ccc(F)cc1,-9,0.96,
NC(=O)CN1CCC(Nc2nc3ccccc3n2CCO)CC1,-7,1.08,
C=CCOc1ccc(Cl)c(C(=O)O)n1,-2,0.22,
CCC(=O)N1CCc2cc(Br)c(S(=O)(=O)N3CCC[C@H](C(=O)NC4CCCCC4)C3)cc21,11,-1.2,
COC[C@H]1CCN(C(=O)c2cc(C)nc3c(C)c(C)ccc23)C1,4,-0.74,
Cn1nccc1CCC(=O)N1CCC(Oc2cccc(Cl)c2)CC1,-9,1.12,
Cc1nnc(CN[C@@H](C)c2ccccc2Oc2ccccc2)o1,-31,3.69,
COc1ccccc1CNC(=O)c1ccnc(OCC2CC2)c1,-14,1.92,
COc1ccc(CN(C(=O)CC(C)(C)C)C(C)C)cc1OS(=O)(=O)C(C)C,6,-0.91,
CC(C)OCCCNC(=O)c1nnc(C(=O)Nc2ccccc2)s1,-20,1.87,
CN1CCN(C(=O)NCc2ccc3c(c2)OCO3)CC1,-3,0.41,
COc1ccc(C(=O)N2CCC[C@H](Oc3cncc(OC)n3)C2)c(OC)c1,-5,0.82,
Cc1ccc(C(=O)Nc2ccc3c(c2)OCCCO3)cn1,-7,0.77,
COC(=O)c1[nH]c(C)c(C(=O)N(C)OC)c1C,-9,1.32,
O=C(CNC(=O)c1cccs1)Nc1cccc(-n2cnnc2)c1,-13,1.8,

Compound,% Inhibition [%],Z score,% Inhibition (2 µM)
O=C(CCCN1CCOC[C@@H](CO)C1)c1ccc(F)cc1,-8,1.58,
O=C(NCCN1CCCCC1)c1cn2ccnc(-c3ccc(F)cc3)c2n1,2,-0.23,
COCCNC(N)=NCc1cccc(Cl)c1,-7,1.02,
COc1cc(CC#N)c(Br)cc1OCC(F)(F)F,3,-0.57,
COCC1CN(C(CC(C)C)C(=O)O)CC(C)O1 (configuration not stated),-8,1.19,
CN(C(=O)c1coc(COc2cccc(C(F)(F)F)c2)n1)C1CCOCC1,10,-1.87,
O=C(Nc1ccccc1C#Cc1ccccc1NC(=O)C(c1ccccc1)c1ccccc1)C(c1ccccc1)c1ccccc1,-8,0.89,
C[C@H]1CS(=O)(=O)C[C@H]1NC(=O)c1nnc(C(C)(C)C)s1,-12,1.45,
N#CC1(CN2C(=O)c3ccccc3C2=O)CCC1,-6,0.87,
CC[C@@H](C(=O)NC1CCCCC1)n1ncc(N(C)C)cc1=O,11,-1.74,
COc1ccc(-c2c(C(F)(F)F)n[nH]c2-c2ccc(OCc3ccccc3F)cc2O)cc1,79,-11.69,
Cc1nc(COC(=O)C[C@H](C)N2CCCCC2=O)n[nH]1,-4,0.5,
CN(C(=O)CCN1CCCS1(=O)=O)C1CCC(F)(F)CC1,-6,1.12,
O=C(COc1ccc(F)cc1)N1CC[C@H](c2ccc3c(c2)OCO3)C1,-2,0.33,
O=C(Cc1ccsc1)NCC1(N2CCOCC2)CCCCC1,-10,1.42,
COCCN1C(=O)Cc2ccccc2[C@@H]1C(=O)N1CCN(c2cccc(Cl)c2)CC1,8,-1.31,
CC(C)(C)OC(=O)NCc1cc(C(=O)N2CCCC3(CC3)C2)co1,6,-0.83,
O=C(NCCN1CCOCC1)C1Cc2cc(C(F)(F)F)ccc2N2CCN(CCc3ccccc3)CC12 (configuration not stated),-3,0.38,
O=C(NCC(=O)N1C2CCC1CC(CC(F)F)C2)N1CCCC1 (configuration not stated),-2,0.39,
CCOc1ccc(Cl)cc1CNCCOCCO,,,-14% and -2%
COc1ccc(OCCCN)c(C(=O)N2CC(Oc3ccccc3F)C2)c1,-15,1.35,
